According to the antibiotic and cytotoxicity screens of Wong et al. (2023):
This is one part of the list.

How the values were obtained:
HSkMC = human skeletal muscle cells; assay: cytotoxicity call (relative viability < 0.9); conditions: 10 µM
HepG2 = assay: cytotoxicity call (relative viability < 0.9); conditions: 10 µM
S. aureus RN4220 = assay: growth inhibition call (relative growth <= 0.2); conditions: 50 µM

| Structure (SMILES) | cytotoxicity call (HSkMC) | cytotoxicity call (HepG2) | growth inhibition call (S. aureus RN4220) |
| --- | --- | --- | --- |
| COc1ccc(S(=O)(=O)N(C)C[C@@H]2OCCCC[C@@H](C)Oc3ccc(NC(=O)NC4CCCCC4)cc3C(=O)N([C@H](C)CO)C[C@H]2C)cc1 | inactive | active | inactive |
| C[C@@H]1CN([C@@H](C)CO)C(=O)c2cc(NC(=O)CCC(F)(F)F)ccc2O[C@H]1CN(C)Cc1ccc(C(F)(F)F)cc1 | inactive | inactive | inactive |
| COc1ccc2c3c(n(c2c1)C)[C@H](CO)N(C[C@]13CN(Cc2cccc(c2)F)C1)C(=O)C1CCOCC1 | inactive | inactive | inactive |
| C[C@@H]1CN([C@H](C)CO)C(=O)Cc2cc(NC(=O)Nc3ccc(C(F)(F)F)cc3)ccc2O[C@H]1CN(C)Cc1ccc(Oc2ccccc2)cc1 | active | inactive | inactive |
| C[C@@H]1CCCCO[C@H](CN(C)C(=O)Nc2ccc(F)cc2)[C@@H](C)CN([C@@H](C)CO)C(=O)c2cc(NC(=O)CCCN(C)C)ccc2O1 | inactive | inactive | inactive |
| COc1ccc(NC(=O)Nc2ccc3c(c2)C(=O)N([C@@H](C)CO)C[C@@H](C)[C@@H](CN(C)C(=O)c2ccccc2)OCCCC[C@H](C)O3)cc1 | inactive | inactive | inactive |
| C[C@@H]1CN([C@@H](C)CO)C(=O)Cc2cc(NC(=O)C3CCCCC3)ccc2O[C@@H]1CN(C)Cc1ccc(Oc2ccccc2)cc1 | inactive | inactive | inactive |
| C[C@H]1CN([C@@H](C)CO)C(=O)c2cccc(NS(=O)(=O)c3cccs3)c2O[C@@H]1CN(C)C(=O)Nc1cccc2ccccc12 | inactive | active | inactive |
| C[C@@H]1CN([C@@H](C)CO)C(=O)c2cc(NC(=O)Cc3ccccc3)ccc2O[C@@H]1CN(C)S(=O)(=O)c1ccccc1 | inactive | inactive | inactive |
| C[C@H](CO)N1C[C@H](C)[C@@H](CN(C)C(=O)Nc2ccc(C(F)(F)F)cc2)Oc2ncc(-c3ccc(C#N)cc3)cc2C1=O | inactive | inactive | inactive |
| CC(C)(C)NC[C@@H](O)c1ccc(O)c(CO)c1.CC(C)(C)NC[C@@H](O)c1ccc(O)c(CO)c1.O=S(=O)(O)O | inactive | inactive | inactive |
| COc1ccc(cc1)CN1C[C@]2(CCN(CC2)S(=O)(=O)c2cn(cn2)C)c2c([nH]c3cc(ccc23)OC)[C@@H]1CO | inactive | inactive | inactive |
| Nc1ncnc2c1ncn2CCN1CCOCC1 | inactive | inactive | inactive |
| COc1cc(O)c2c(=O)c(O)c(-c3ccccc3)oc2c1 | inactive | inactive | inactive |
| O=C(CCCCCNC(=O)OCCCOc1ccc(C2=N[C@@]3(Cc4ccccc4N(CCS(=O)(=O)c4ccccc4)C3=O)[C@H](c3ccccc3)O2)cc1)NO | inactive | inactive | inactive |
| C[C@@H]1CN([C@@H](C)CO)C(=O)c2cc(NC(=O)CCN3CCOCC3)ccc2O[C@@H]1CN(C)S(=O)(=O)c1ccc(Cl)cc1 | inactive | inactive | inactive |
| C[C@@H]1CN([C@@H](C)CO)C(=O)c2cc(NS(=O)(=O)c3cccs3)ccc2O[C@@H](C)CCCCO[C@@H]1CN(C)C(=O)Nc1ccc(F)cc1 | inactive | inactive | inactive |
| CNC[C@@H]1OCCCC[C@@H](C)Oc2ccc(NC(=O)CCCN(C)C)cc2C(=O)N([C@H](C)CO)C[C@@H]1C | inactive | inactive | inactive |
| C[C@@H]1CN([C@H](C)CO[Si](C)(C)C(C)(C)C)C(=O)c2cc(NC(=O)C3CCCCC3)ccc2O[C@H]1CN(C)C(=O)c1ccc(Cl)cc1 | inactive | inactive | inactive |
| Cc1noc(C)c1S(=O)(=O)Nc1ccc2c(c1)CC(=O)N([C@H](C)CO)C[C@H](C)[C@@H](CN(C)S(=O)(=O)c1cn(C)cn1)O2 | inactive | inactive | inactive |
| COc1ccc(S(=O)(=O)N(C)C[C@H]2Oc3ccc(NS(=O)(=O)c4ccc(C)cc4)cc3C(=O)N([C@@H](C)CO)C[C@H]2C)cc1 | inactive | inactive | inactive |
| COc1ccc(S(=O)(=O)N(C)C[C@H]2Oc3ccc(NS(=O)(=O)c4cccs4)cc3C(=O)N([C@H](C)CO)C[C@@H]2C)cc1 | inactive | inactive | inactive |
| CC(C=CC=C(C)C=CC(=O)C1(C)CC(O)CC1(C)C)=CC=CC=C(C)C=CC=C(C)C=CC1=C(C)CC(O)CC1(C)C (stereo not drawn) | inactive | inactive | inactive |
| C[C@H](NC(=O)C[C@H]1CC[C@H](NC(=O)CN2CCOCC2)[C@H](CO)O1)c1ccccc1 | inactive | inactive | inactive |
| C[C@H]1CN([C@@H](C)CO)C(=O)Cc2cc(NC(=O)CCCCCC(=O)Nc3ccccc3N)ccc2O[C@H]1CN(C)C(=O)Nc1ccccc1 | inactive | inactive | inactive |
| C[C@H](CO)N1C[C@H](C)[C@H](CN(C)C(=O)NC2CCCCC2)OCCCC[C@H](C)Oc2ccc(NC(=O)Nc3cccc4ccccc34)cc2C1=O | inactive | inactive | inactive |
